Data: PubChem BioAssay AID485364 (National Center for Advancing Translational Sciences (NCATS), 2010)
In all, about 360,000 compounds went through this assay and about 11,000 (3.1%) were called active. The shares of active, inactive and inconclusive entries below differ from those in the screen. Calls come from the whole dose curve; as a rule, active = well fitted inhibition curve with a large enough effect; inconclusive = small, poorly fitted or top-dose-only effect; inactive = no such curve, though single readings can be large or run the other way. Potencies of inconclusive entries are left out as doubtful fits.

What follows are compounds tested against Schistosoma mansoni thioredoxin glutathione reductase (TGR) (UniProt Q962Y6) (assay: qHTS Assay for the Inhibitors of Schistosoma Mansoni Peroxiredoxins). Details: purified TGR, DTNB reduction, TNB absorbance 405 nm; activity change, negative = inhibition: at 114 µM (top of the series) unless noted.
Outline: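 TGR 20 nM + NADPH 100 uM (dispensed conc.), cpd preinc 15 min RT; start with NADPH (500 uM addition) then DTNB (15 mM addition). Kinetic TNB absorbance, 405 nm filter. Four-parameter Hill fit across titration.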
% is set by controls: 0 for no effect and ±100 for the full control effect; potency is the fitted concentration of half-maximal effect; tags give direction and shape of the fitted curve.
Note: nearly all actives have a fitted effect of over 60% in size.

Structure (SMILES)	Potency	activity change, negative = inhibition
O=S(=O)(Nc1nc2ccccc2nc1Cl)c1ccc(Cl)cc1	inconclusive [inhibitor, partial curve]	–
CNC(C)C#Cc1ccc2oc3cccc(OC)c3c(=O)c2c1 (stereo not drawn)	inconclusive [inhibitor, full curve]	–
CC1(C)CC(=O)C(C(=O)CCCCC(=O)C2C(=O)CC(C)(C)CC2=O)C(=O)C1	inconclusive [inhibitor, full curve, poor fit]	–
CCOC(=O)c1c(NC(=O)CCC(=O)NCc2ccco2)sc2c1CCCC2	inconclusive [inhibitor, single point]	–
Cc1ccc(C(C(=O)NCCc2ccccc2)N(C(=O)c2csnn2)C2CC2)o1 (stereo not drawn)	inconclusive [inhibitor, partial curve]	–
O=C1OCC=C1NNC(=O)c1cccnc1	active: 39.8 µM	–
COc1ccc(Nc2nccc(-c3ccc(C#N)cc3)n2)cc1	–	inactive: 35.9%
Cn1cc(/C=C(\NC(=O)c2ccccc2)C(=O)NCCN2CCOCC2)c2ccccc21	inconclusive [inhibitor, partial curve]	–
Cc1sc2ncnc(SCC(=O)Nc3ncccc3O)c2c1C	inconclusive [inhibitor, partial curve]	–
COc1cccc(CNC(=O)c2cccc(NC(=O)CC3SC(N4CCCCC4)=NC3=O)c2)c1 (stereo not drawn)	inconclusive [inhibitor, partial curve]	–
Cc1ccc(C)c(SCC(=O)Nc2ccc(C)c(S(=O)(=O)N3CCOCC3)c2)c1	active: 44.7 µM	–
CCOc1ccc(NC(=O)c2c(NCc3ccc(C)o3)sc3c2CCCCC3)cc1	active: 8.91 µM	–
O=C(NCc1ccccc1Cl)c1ccc(S(=O)(=O)NCc2ccco2)cc1	–	inactive: -6.49%
COC(=O)c1cscc1S(=O)(=O)Cc1ccccc1	active: 10 µM	–
Cc1nnc2n1N=C(c1ccccc1)CS2	active: 39.8 µM	–
O=C(CCS(=O)(=O)c1cccc2nonc12)N1CC(=O)N(CCc2ccccc2)C(=O)C1	inconclusive [inhibitor, partial curve]	–
CCCn1nc(C(=O)NNC(=O)c2cccc(S(=O)(=O)NC(C)C)c2)c2ccccc2c1=O	–	inactive: 2.09%
Cc1ccnc(OC(C(=O)O)C(OCc2ccccc2)(c2ccccc2)c2ccc(C(F)(F)F)cc2)n1 (stereo not drawn)	inconclusive [inhibitor, partial curve, poor fit]	–
COc1ccc(CNC(=O)c2noc(C)c2[N+](=O)[O-])cc1	inconclusive [inhibitor, partial curve]	–
Cc1ccc(C2CC(c3cccs3)=NN2C(=O)CSC2=NCCS2)cc1 (stereo not drawn)	–	inactive: 0%
O=C(CCn1cccc1)Nc1nccs1	inconclusive [inhibitor, partial curve]	–
COc1cccc(C(=O)NC(=S)Nc2cccnc2)c1	active: 56.2 µM	–
Cc1cc(N2CCN(C3CCCCC3)CC2)nc2cccc(O)c12	inconclusive [inhibitor, partial curve]	–
O=C(O)Cc1sc(-c2cccnc2)nc1-c1ccc(Br)cc1	active: 22.4 µM	–
CC(=O)OCCCNc1cc(SCc2ccco2)c2nonc2c1[N+](=O)[O-]	active: 7.08 µM	–

Structure (SMILES)	Potency	activity change, negative = inhibition
Cc1ccc(NC(=O)c2cc(N3C(=O)C=CC3=O)ccc2N2CCOCC2)cc1	active: 0.708 µM	–
Nc1nonc1-n1nnc(C(=O)N/N=C/c2ccoc2)c1-c1ccccc1	–	inactive: 0.0925%
Cc1nnc2ccc(-c3cccc(NS(=O)(=O)c4cc(F)ccc4F)c3)nn12	–	inactive: 2.87%
COc1ccc(C(=O)/C=C(\N)C(F)(F)F)c(O)c1	inconclusive [inhibitor, partial curve]	–
COc1ccc2oc(-c3ccc(C)c(NC(=O)c4ccc5c(c4)OCCO5)c3)nc2c1	–	inactive: 1.43%
Cc1ccc(C(=O)N/N=C/c2ccc(-c3ccccc3[N+](=O)[O-])o2)cn1	inconclusive [inhibitor, partial curve]	–
N=C1/C(=C\c2ccc(Br)o2)C(=O)N=C2SC(CC(=O)N3CCCCC3)=NN12	inconclusive [inhibitor, partial curve, poor fit]	–
CC1(C)CC(=O)C(C=NCCN2CCN(CCCCS(=O)(=O)O)CC2)=C(O)C1	inconclusive [inhibitor, partial curve]	–
C#CCNc1ccc([N+](=O)[O-])cc1	inconclusive [inhibitor, partial curve]	–
N#CC1=C(C2CC2)CC(c2ccccc2)C(C#N)=C1N (stereo not drawn)	inconclusive [inhibitor, full curve]	–
Oc1ccc(Cl)cc1C1=NNC(c2cccs2)C1 (stereo not drawn)	active: 17.8 µM	–
N#CC(C#N)=C1NC(N)=C(C#N)C(c2ccccc2)=C1C#N	inconclusive [inhibitor, partial curve]	–
COc1cc(NC(=S)NC(=O)CCc2ccccc2)cc(OC)c1	inconclusive [inhibitor, full curve]	–
O=C(Nc1cccc2ncccc12)c1cc2ccccc2o1	inconclusive [inhibitor, single point]	–
Cc1cc(OCC(=O)Nc2c(C(=O)c3ccccc3)oc3ccccc23)cc(C)c1Cl	–	inactive: 9.83%
COc1ccc(C(C)=O)cc1CSc1ccccn1	inconclusive [inhibitor, partial curve]	–
Cc1noc(NS(=O)(=O)c2ccc(NC(=O)CCn3c(=O)oc4ccccc43)cc2)c1C	active: 15.8 µM	–
Cc1c(C(=O)c2ccc(F)cc2F)c2ccccn2c1CCC#N	active: 35.5 µM	–
CCCCN1C(=O)CC(Sc2ccccc2C(=O)O)C1=O (stereo not drawn)	active: 20 µM	–
O=C(OCc1nnc(-c2ccccc2)o1)c1ccc([N+](=O)[O-])o1	inconclusive [inhibitor, partial curve]	–
O=C(Nc1ccc(F)cc1F)c1cc(-c2ccco2)nc2ccccc12	active: 11.2 µM	–
COc1ccc(NC(=O)N2CCN(S(=O)(=O)c3ccc4c(ccn4C)c3)CC2)cc1OC	–	inactive: -0.936%
CCC(C)(C)n1nnnc1C(c1cc2ccc(OC)cc2[nH]c1=O)N1CCN(C2CCCCC2)CC1 (stereo not drawn)	inconclusive [inhibitor, partial curve]	–
COc1ccc(CCNC(=O)C(CCC(N)=O)NS(=O)(=O)c2ccc(Cl)cc2)cc1OC (stereo not drawn)	inconclusive [inhibitor, partial curve]	–
O=S(=O)(c1ccccc1)c1nc(-c2ccc(Cl)cc2)oc1NCCCN1CCOCC1	inconclusive [inhibitor, partial curve]	–

Structure (SMILES)	Potency	activity change, negative = inhibition
CCNC(=O)/C(C#N)=C/c1c(N(Cc2ccccc2)Cc2ccccc2)nc2ccccn2c1=O	–	inactive: -8.9%
Cc1ccccc1Nc1nc(N)nc(CN2C(=O)NC3(CCCCC3C)C2=O)n1 (stereo not drawn)	inconclusive [inhibitor, partial curve]	–
Cc1occc1-c1nnc(SCC(=O)N2CCCC(C)C2)o1 (stereo not drawn)	inconclusive [inhibitor, partial curve]	–
Cc1ccc(-c2c(C(=O)N/N=C/c3ccc4c(c3)OCO4)nnn2-c2nonc2N)cc1	–	inactive: -11.8%
S=c1[nH]nc(-c2cc(-c3ccco3)[nH]n2)n1-c1ccccc1Cl	active: 39.8 µM	–
CC(=O)Nc1nc(C)c(-c2csc(Nc3ccc(O)cc3)n2)s1	–	inactive: -24.4%
CCn1c(CNc2ccc(OC)cc2)nnc1SCC(=O)c1ccc(OC)cc1	inconclusive [inhibitor, partial curve]	–
CC(=O)c1c(C)[nH]c(C(=O)CSc2nnc(-c3ccco3)o2)c1C	–	inactive: -10.9%
COc1cc(-c2cc3n(C)c(C)c(CCC(=O)NCc4ccccc4)c(=O)n3n2)cc(OC)c1OC	–	inactive: 10.1%
CCOC(=O)c1ccc(-c2nnc(-c3ccc(Cl)cc3Cl)o2)cc1	–	inactive: 5.23%
Cc1ccc(C2=C/C(=C\c3cccnc3)C(=O)O2)cc1	–	inactive: -8.03%
O=C(COC(=O)c1ccc(S(=O)(=O)NCc2ccco2)cc1)Nc1ccccc1OC(F)F	inconclusive [inhibitor, partial curve]	–
CCN(CCNC(=O)C1CCN(S(C)(=O)=O)CC1)c1ccccc1	–	inactive: 0.662%
CC(=O)c1cc(NC(=O)c2ccccc2)c(=O)oc1C	active: 35.5 µM	–
Cc1cccc(NC(=O)COc2coc(CN3CCN(c4ccccc4)CC3)cc2=O)c1	inconclusive [inhibitor, partial curve]	–
CCc1ccc(NC(=O)c2ccc(NC(=O)C3CCCO3)cc2)cc1 (stereo not drawn)	inconclusive [inhibitor, single point]	–
CCC(CC)N1CCN(Cc2nc3ccc([N+](=O)[O-])cc3c(=O)n2-c2ccccc2F)CC1	inconclusive [inhibitor, partial curve]	–
COc1ccc(N2CC(C(=O)Nc3c4c(nn3-c3ccc(OC)cc3)CS(=O)(=O)C4)CC2=O)cc1 (stereo not drawn)	inconclusive [inhibitor, partial curve]	–
COCCN1Cc2cccc(C(=O)NCc3ccccn3)c2C1=O	inconclusive [inhibitor, partial curve, poor fit]	–
COc1ccc(C(=O)NC(=S)Nc2ccc(N3CCOCC3)cc2)cc1Cl	active: 20 µM	–
Cc1ccc(C2CC(c3cccs3)=NN2C(=O)CCl)cc1 (stereo not drawn)	active: 2.51 µM	–
CC1Cc2ccccc2N1C(=O)CCS(=O)(=O)c1cccc2nonc12 (stereo not drawn)	inconclusive [inhibitor, full curve]	–
O=C(O)C1=C[C@H](c2cccs2)C[C@H](OCc2ccc(CO)cc2)O1	active: 35.5 µM	–
